In the supplement of paper PMC10369915:
The list shows a part of the results. Cut-off read from the data, not from the text of the source: active = 3.2 or more and inactive = the rest. The signal is at background level for most entries.

What follows are binders tested against SHP2 C-SH2 domain E139D (assay: enrichment score (SH2-bound / input frequency) (ratio); bacterial display of known human phosphotyrosine sites (pTyr-Var adds point mutants) read by sequencing; higher = stronger binding; tyrosines were phosphorylated by kinases first). Conditions: peptide library: pTyr-Var.
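Note: displayed peptides selected on beads carrying the immobilized SH2 domain, with library peptides lacking any tyrosine serving as negative controls.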

Enrichment score, inactive:
TCRPPYYHRNC [HGD_Y333_F329C] 0.683
TLQIMYGCDVG [HLA-A_Y123_I119L] 0.986
VDESLYKTHPQ [HK1_Y417_G414E] 0.591
FSEVRYVKEPF [HIPK4_Y170_YF] 0.784
TFRPPYYHRNC [HGD_Y333] 1.54
TFRPPYYHRDC [HGD_Y333_N337D] 2.33
FMKEPYIQSRF [HIPK4_Y175_V171M_YF] 0.86
CPYNLYAEQLS [HGD_Y40] 1.09
CPYNLYAEQFS [HGD_Y40_L44F] 0.916
LSAPWYLNRIS [HEXA_Y421] 1.3
ENFSEYQEISV [HEMGN_Y150_A154S] 0.71
MGGSVYFSYPD [HIKESHI_Y55] 1.5
GNLLIYTKFGK [HGD_Y166_E168K] 1.27
GAVGHYVLAER [HFE_Y342_M339V] 0.669
ILGLEYSLRLP [HELZ2_Y1304_V1308L] 1.43
RLLRGYRQDAY [HLA-A_Y137_F133L] 0.239
CRPPFYHRNCM [HGD_Y334_F329C_YF] 2.9
FSEVRYVKEPY [HIPK4_Y170] 1.02

The binders below were run against SHP2 C-SH2 domain wild-type in the same assay as above. Conditions: peptide library: pTyr-Var.

Enrichment score, inactive:
TCRPPYYHRNC [HGD_Y333_F329C] 1.32
TLQIMYGCDVG [HLA-A_Y123_I119L] 1.34
VDESLYKTHPQ [HK1_Y417_G414E] 0.551
FSEVRYVKEPF [HIPK4_Y170_YF] 0.721
TFRPPYYHRNC [HGD_Y333] 1.38
TFRPPYYHRDC [HGD_Y333_N337D] 1.77
FMKEPYIQSRF [HIPK4_Y175_V171M_YF] 0.501
CPYNLYAEQLS [HGD_Y40] 1.15
CPYNLYAEQFS [HGD_Y40_L44F] 0.939
LSAPWYLNRIS [HEXA_Y421] 1.25
ENFSEYQEISV [HEMGN_Y150_A154S] 0.693
MGGSVYFSYPD [HIKESHI_Y55] 1.6
GNLLIYTKFGK [HGD_Y166_E168K] 2.42
GAVGHYVLAER [HFE_Y342_M339V] 0.771
ILGLEYSLRLP [HELZ2_Y1304_V1308L] 1.7
RLLRGYRQDAY [HLA-A_Y137_F133L] 0.21
CRPPFYHRNCM [HGD_Y334_F329C_YF] 2.33
FSEVRYVKEPY [HIPK4_Y170] 1.11

What follows are binders tested against SHP2 N-SH2 domain L43F in the same assay as above. Conditions: peptide library: pTyr-Var.

Enrichment score, inactive:
TCRPPYYHRNC [HGD_Y333_F329C] 1.92
TLQIMYGCDVG [HLA-A_Y123_I119L] 0.886
VDESLYKTHPQ [HK1_Y417_G414E] 0.627
FSEVRYVKEPF [HIPK4_Y170_YF] 1.03
TFRPPYYHRNC [HGD_Y333] 1.22
TFRPPYYHRDC [HGD_Y333_N337D] 2.14
FMKEPYIQSRF [HIPK4_Y175_V171M_YF] 0.811
CPYNLYAEQLS [HGD_Y40] 1.06
CPYNLYAEQFS [HGD_Y40_L44F] 0.897
LSAPWYLNRIS [HEXA_Y421] 1.56
ENFSEYQEISV [HEMGN_Y150_A154S] 0.865
MGGSVYFSYPD [HIKESHI_Y55] 1.37
GNLLIYTKFGK [HGD_Y166_E168K] 1.77
GAVGHYVLAER [HFE_Y342_M339V] 0.688
ILGLEYSLRLP [HELZ2_Y1304_V1308L] 1.83
RLLRGYRQDAY [HLA-A_Y137_F133L] 0.38
CRPPFYHRNCM [HGD_Y334_F329C_YF] 2.64
FSEVRYVKEPY [HIPK4_Y170] 0.748

These binders were tested against SHP2 N-SH2 domain T42A in the same assay as above. Conditions: peptide library: pTyr-Var.

Enrichment score, inactive:
TCRPPYYHRNC [HGD_Y333_F329C] 1.11
TLQIMYGCDVG [HLA-A_Y123_I119L] 0.876
VDESLYKTHPQ [HK1_Y417_G414E] 0.544
FSEVRYVKEPF [HIPK4_Y170_YF] 1.27
TFRPPYYHRNC [HGD_Y333] 1.36
TFRPPYYHRDC [HGD_Y333_N337D] 1.32
FMKEPYIQSRF [HIPK4_Y175_V171M_YF] 0.971
CPYNLYAEQLS [HGD_Y40] 0.887
CPYNLYAEQFS [HGD_Y40_L44F] 0.936
LSAPWYLNRIS [HEXA_Y421] 1.31
ENFSEYQEISV [HEMGN_Y150_A154S] 0.817
MGGSVYFSYPD [HIKESHI_Y55] 1.2
GNLLIYTKFGK [HGD_Y166_E168K] 1.66
GAVGHYVLAER [HFE_Y342_M339V] 0.631
ILGLEYSLRLP [HELZ2_Y1304_V1308L] 1.6
RLLRGYRQDAY [HLA-A_Y137_F133L] 0.242
CRPPFYHRNCM [HGD_Y334_F329C_YF] 2.06
FSEVRYVKEPY [HIPK4_Y170] 0.734

Each binder was assayed against SHP2 N-SH2 domain T52S in the same assay as above. Conditions: peptide library: pTyr-Var.

Enrichment score, inactive:
TCRPPYYHRNC [HGD_Y333_F329C] 1.48
TLQIMYGCDVG [HLA-A_Y123_I119L] 1.09
VDESLYKTHPQ [HK1_Y417_G414E] 0.618
FSEVRYVKEPF [HIPK4_Y170_YF] 0.75
TFRPPYYHRNC [HGD_Y333] 1.6
TFRPPYYHRDC [HGD_Y333_N337D] 2.15
FMKEPYIQSRF [HIPK4_Y175_V171M_YF] 0.895
CPYNLYAEQLS [HGD_Y40] 1.05
CPYNLYAEQFS [HGD_Y40_L44F] 0.886
LSAPWYLNRIS [HEXA_Y421] 1.64
ENFSEYQEISV [HEMGN_Y150_A154S] 0.711
MGGSVYFSYPD [HIKESHI_Y55] 1.21
GNLLIYTKFGK [HGD_Y166_E168K] 1.53
GAVGHYVLAER [HFE_Y342_M339V] 0.443
ILGLEYSLRLP [HELZ2_Y1304_V1308L] 1.62
RLLRGYRQDAY [HLA-A_Y137_F133L] 0.243
CRPPFYHRNCM [HGD_Y334_F329C_YF] 2.37
FSEVRYVKEPY [HIPK4_Y170] 0.771

These binders were tested against SHP2 N-SH2 domain wild-type in the same assay as above. Conditions: peptide library: pTyr-Var.

Enrichment score, inactive:
TCRPPYYHRNC [HGD_Y333_F329C] 0.934
TLQIMYGCDVG [HLA-A_Y123_I119L] 1.54
VDESLYKTHPQ [HK1_Y417_G414E] 0.628
FSEVRYVKEPF [HIPK4_Y170_YF] 0.772
TFRPPYYHRNC [HGD_Y333] 1.53
TFRPPYYHRDC [HGD_Y333_N337D] 1.8
FMKEPYIQSRF [HIPK4_Y175_V171M_YF] 0.63
CPYNLYAEQLS [HGD_Y40] 1.16
CPYNLYAEQFS [HGD_Y40_L44F] 0.978
LSAPWYLNRIS [HEXA_Y421] 1.62
ENFSEYQEISV [HEMGN_Y150_A154S] 0.982
MGGSVYFSYPD [HIKESHI_Y55] 1.54
GNLLIYTKFGK [HGD_Y166_E168K] 2.7
GAVGHYVLAER [HFE_Y342_M339V] 0.845
ILGLEYSLRLP [HELZ2_Y1304_V1308L] 1.77
RLLRGYRQDAY [HLA-A_Y137_F133L] 0.294
CRPPFYHRNCM [HGD_Y334_F329C_YF] 2.09
FSEVRYVKEPY [HIPK4_Y170] 1.26
